Results reported in the RNAGym collection of RNA variant scans (doi:10.1073/pnas.2313332121).
Variants at the background level are over-represented here.

B1: TPR 5TU (parent)
chain: GGAUCUUCUCGAUCUAACAAAAAAGACAAAUCUGCCACAAAGCUUGAGAGCAUCUUCGGAUGCAGAGGCGGCAGCCUUCGGUGGCGCGAUAGCGCCAACGUUCUCAACUAUGACACGCAAAACGCGUGCUCCGUUGAAUGGAGUUUAUCAUG

Variants of: B1
Experiment: polymerase ribozyme fitness, log enrichment relative to wild type (log ratio); higher = more active; in vitro selection for triplet polymerase activity
Method in brief: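 PCR was used to build mutant libraries for each subunit of a heterodimeric triplet polymerase ribozyme, which were then transcribed. A single in vitro selection round, in triplicate, used a frozen incubation at −7 °C and recovered extended constructs by gel excision, streptavidin beads and RT-PCR. Fitness is the logarithm of genotype enrichment relative to wild-type enrichment, averaged over replicates with inverse-variance weights. The logarithm is base 2, and after Illumina sequencing only genotypes with ≥10 input reads and ≥1 read per output were kept.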

Row | Variant | polymerase ribozyme fitness (log ratio)
1 | A23C G152U | ≤ -4.2
2 | A23G A37G C93U U135G | ≤ -4.2
3 | A22U G80A | 0.375
4 | A23G G68U C93G A142G | ≤ -4.2
5 | A22U A106G | 1.21
6 | A22U U31A U53G C79G C95G U130G G141C | ≤ -4.2
7 | A22C U33A A52G G70A A91C C116U | ≤ -4.2
8 | A22G A89U C132G | ≤ -4.2
9 | A22U A47U C54U U77A U90G U139A G140U G141U C149G | ≤ -4.2
10 | A23G A49U C72U C76G G84C C95U G140A | ≤ -4.2
11 | A22U A29U A40G U56A C57U C95A G126C G133A U139C G152A | ≤ -4.2
12 | A22G A24G G92U | ≤ -4.2
13 | A23C A26C | ≤ -4.2
14 | A23G A39C C87A C116U | ≤ -4.2
15 | A22U C35U G42A A60U A89U C149U | ≤ -4.2
16 | A23G A26U A28U C38U A49C | ≤ -4.2
17 | A22U C99G C116U | -0.689
18 | A23C A73G G86A U109A | ≤ -4.2
19 | A23G G83A G94A C125U A147C | ≤ -4.2
20 | A22U U44A C54G A106G | ≤ -4.2
21 | A23G C35G C51A C85U A106U A113C A121C | ≤ -4.2

Row | Variant | polymerase ribozyme fitness (log ratio)
22 | A22G U53C C54U U78C G117A | -1.92
23 | A22U A41C A52U G124U | -2.3
24 | A22U C27A G34A C54A G65U A91U C93U C105U | ≤ -4.2
25 | A23C C51A U55A C87A C99G A115U U144C | ≤ -4.2
26 | A23G U33G U56C G71U G117U A119C U144G U146C | ≤ -4.2
27 | A23C C38U A39U U82G C87A | ≤ -4.2
28 | A23C A49C A52C C87G G94U A122G C125A U151C | ≤ -4.2
29 | A22G C27G C38U A47C G86A A121U G143U | ≤ -4.2
30 | A22C U31A G50U C116U A137U | ≤ -4.2
31 | A23C G68U C116G A137C | ≤ -4.2
32 | A23C G34U G83U C131U | ≤ -4.2
33 | A22U A49C C57U C85A A137C G140U U145G | ≤ -4.2
34 | A23C U144C | -4.15
35 | A23C C54U G59U G92C U104C C118U | ≤ -4.2
36 | A22U U33G C87G A106G | ≤ -4.2
37 | A23G A29G C69A U90C A142U | ≤ -4.2
38 | A22U G34U U53A U55A C85U A98G | ≤ -4.2
39 | A22U C85G U104C C108A G143U | ≤ -4.2
40 | A22U C57U U78A C79U G84C G117C | ≤ -4.2
41 | A22C G86U C131A | ≤ -4.2
42 | A22U C35U G48U G80A C87G C103U A138G U148G | ≤ -4.2

Row | Variant | polymerase ribozyme fitness (log ratio)
43 | A22U C38U G67A C75U C85G G100U U101G A120C G124C | ≤ -4.2
44 | A23C U33G A37C G70C A98U A120U G126A U144C | ≤ -4.2
45 | A22C U44A U53A C72G U102G C132U A137C U148G | ≤ -4.2
46 | A22G A40C A52C A73C G83C C114A G136C G140A U148G | ≤ -4.2
47 | A23C C125U C131U G141C | ≤ -4.2
48 | A23C G83A C116A G152A | ≤ -4.2
49 | A22U C32A C35A G92C C108G C118U U144A | ≤ -4.2
50 | A23C G67A A73U C96U G140C | ≤ -4.2
51 | A23C A29G A39U U55A G86U | ≤ -4.2
52 | A22G A28U A29G A37C G48A A64C C85G C99U C125A A137G | ≤ -4.2
53 | A23G G42C G50C U61A C75G C85G A122C G128U | ≤ -4.2
54 | A22U A26C A47C C57A G62A G86A A89U A106U C108G | ≤ -4.2
55 | A22G C75U C87A G141C A142C | ≤ -4.2
56 | A23U A26U U53A G74C G83A | ≤ -4.2
57 | A23G U82G G83C C95U G100A | ≤ -4.2
58 | A23C A91U C103G | ≤ -4.2
59 | A22U A29G C35G U44G C57U C114A | ≤ -4.2
60 | A22U G58A G59U U82G C95U A97U C114U A115G A142U | ≤ -4.2
61 | A22C G84C G133U | ≤ -4.2
62 | A23G U61G A97U A150C U151C | ≤ -4.2
63 | A22G C32A G68A G80C C87U | ≤ -4.2

Row | Variant | polymerase ribozyme fitness (log ratio)
64 | A23G A47C | -2.96
65 | A23G U61A G92C A121G A142G | ≤ -4.2
66 | A22G C51U G83A | 0.818
67 | A22U A41C C63U A107U | ≤ -4.2
68 | A23C G50C G59A C79U G83U A89U C95U C132U A142C | ≤ -4.2
69 | A23G A39C G80U C96G U102G C103U C118G | ≤ -4.2
70 | A22U G25A C51U G94A | ≤ -4.2
71 | A22U A37U C51U C87A | ≤ -4.2
72 | A23G C57U G70U C87G | ≤ -4.2
73 | A23G A40C G141C | -3.82
74 | A23C U44G A47U A91U A122U | ≤ -4.2
75 | A23C A26C A60U U134G | ≤ -4.2
76 | A23G G48U C87G C93U C118U G124C U135G | ≤ -4.2
77 | A22U U45A A47C G58A G65U G68A C95U A150U | ≤ -4.2
78 | A23C C35A A73G A106G C149U | ≤ -4.2
79 | A23G U33G G42C C87G A120G G126U | ≤ -4.2
80 | A22G A23U A40C U77C C85A U134A G143A | ≤ -4.2
81 | A22G U44A G81U C116U U135G | ≤ -4.2
82 | A22U G67U A120U G133U A142C | ≤ -4.2
83 | A23G C36G | ≤ -4.2
